In the supplement of paper PMC10126150:
Values marked as one replicate rest on one cluster of the flow cell; about a third of the high ones do not repeat.

Tested on: ATP
Experiment: switch fluorescence ratio, 500 uM ATP over buffer (Cy3 cluster intensity, sum of 5 cycles each) (fold (ratio)); higher = stronger signal-on switching upon ATP binding; sequences stand for … in TCGTCGGCAGCGTCAGATGTGTATAAGAGACAGTTTTTTTTTTTTTTTTTTTTTTTTT…TC
Conditions: aptamer strand: ATP DNA aptamer (quencher-CACCTGGGGGAGTATTGCGGAGGAAGG + anchor), 100 nM annealed; ATP concentration: 500 uM; one replicate
Procedure, shortened: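 Values give the fluorescence ratio for each switch-domain sequence, averaged from per-cluster ratios of summed target-cycle to summed buffer-cycle Cy3 intensity. The Cy3-labelled switching-strand clusters sat on a modified Illumina MiSeq flow-cell, were annealed to 100 nM quencher-labelled ATP aptamer, and were imaged in selection buffer, then after 15 min with 500 uM ATP at 22 °C. Five cycles ran with NaOH stripping and re-annealing between them, and clusters outside 100-1000 RFU were excluded.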
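Also: ATP exposure 15 min at 22 °C before imaging.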

TATTCATGAT
switch fluorescence ratio: 0.957

GTCTACCAAT
switch fluorescence ratio: 1.01

CCTTGCGGTT
switch fluorescence ratio: 1.14

TTTACTGAAC
switch fluorescence ratio: 1.18

AAACGTGTAT
switch fluorescence ratio: 0.975

GTAGCTCAAC
switch fluorescence ratio: 1.85

TGCAGGA
switch fluorescence ratio: 0.989

ATTCGCTGGG
switch fluorescence ratio: 1.38

ATAGGCATAT
switch fluorescence ratio: 1.95

CCTAACTTCG
switch fluorescence ratio: 1.26

GGTACACAAA
switch fluorescence ratio: 0.96

TTCCGGTTCG
switch fluorescence ratio: 1.02

GATGTCGGGT
switch fluorescence ratio: 1.02

GTCAATTAGC
switch fluorescence ratio: 0.942

CCACAATAT
switch fluorescence ratio: 3.1

AAGATTCTGA
switch fluorescence ratio: 1.05

TAAAAACACC
switch fluorescence ratio: 1.15

TTTTGCAGGG
switch fluorescence ratio: 0.994

CCCGGATTTC
switch fluorescence ratio: 1.1

AGTTTAAAGG
switch fluorescence ratio: 1.06

CTCTAGATAG
switch fluorescence ratio: 2.82

TCCCCGGTCC
switch fluorescence ratio: 1.38

TGTTACTG
switch fluorescence ratio: 1.02

TACGTGGGCG
switch fluorescence ratio: 0.917

AGTGTGGAGG
switch fluorescence ratio: 1.02

AACTTTTCGC
switch fluorescence ratio: 1.04

TTGATATACC
switch fluorescence ratio: 0.999

TTTCATACTT
switch fluorescence ratio: 0.997

ATGACGATAC
switch fluorescence ratio: 2.01

CTAGTATTCG
switch fluorescence ratio: 0.997

AGCCATGTCG
switch fluorescence ratio: 0.971

ATATACTTTC
switch fluorescence ratio: 1.04

TTGGACCATT
switch fluorescence ratio: 1.02

GTCGCCCTTA
switch fluorescence ratio: 0.973

GGTCCTCCTT
switch fluorescence ratio: 1.04

CATGGGTATC
switch fluorescence ratio: 1

AACGGAGACC
switch fluorescence ratio: 1.05

TCGGGGCGCC
switch fluorescence ratio: 1.03

GTATTTTTGT
switch fluorescence ratio: 1.03

TCGATTAAGG
switch fluorescence ratio: 1

ACATTTAACT
switch fluorescence ratio: 1.04

AGAAACGTCT
switch fluorescence ratio: 1.07

TAATGGAATG
switch fluorescence ratio: 1.03

ATAGTAAACT
switch fluorescence ratio: 1.02

TTCTGCGCGC
switch fluorescence ratio: 1.01

TGTGATCA
switch fluorescence ratio: 1

TTATATGATA
switch fluorescence ratio: 1.02

GCGATAGTTA
switch fluorescence ratio: 1.02

GGGTCCCGAC
switch fluorescence ratio: 1.04

TTAGCCGAGG
switch fluorescence ratio: 0.941

AATAATTCGC
switch fluorescence ratio: 1.01

GCGTCGGTGA
switch fluorescence ratio: 0.994

CTGGATTCGC
switch fluorescence ratio: 1.22

GTAATAGTGG
switch fluorescence ratio: 1

CATGCCCGCG
switch fluorescence ratio: 1.02

GAACACTATA
switch fluorescence ratio: 1.18

GTATAAATTA
switch fluorescence ratio: 1.01

TCCGAAATC
switch fluorescence ratio: 1.45

AAAACGTGAG
switch fluorescence ratio: 0.982

TTCAAAAGGC
switch fluorescence ratio: 1

TCCGTAA
switch fluorescence ratio: 1.03

AAGTGTGTTA
switch fluorescence ratio: 1.01

GATGCCGTA
switch fluorescence ratio: 0.967

TTGCTTTCTA
switch fluorescence ratio: 0.98

ACGTTGATCG
switch fluorescence ratio: 1.01

GTGACGGTTT
switch fluorescence ratio: 1.01

CCAAAGCTTT
switch fluorescence ratio: 1.33

CAGGAGGTTT
switch fluorescence ratio: 1

AAAAATAGTC
switch fluorescence ratio: 1.04

TGTAACCCGG
switch fluorescence ratio: 0.993

GCGGGGCCCT
switch fluorescence ratio: 1.02

AGTCCATAGG
switch fluorescence ratio: 1.01

CGTATTCATG
switch fluorescence ratio: 0.987

CACGTTTAAT
switch fluorescence ratio: 1.08

GACGCTTACG
switch fluorescence ratio: 0.925

ATCCACGTCT
switch fluorescence ratio: 1.05

CCGCTGGGGA
switch fluorescence ratio: 1.7

TACGAGGCGC
switch fluorescence ratio: 1.22

CTTAGTGATT
switch fluorescence ratio: 1

CTACGGGGTC
switch fluorescence ratio: 1.2

CGGTTTCGAA
switch fluorescence ratio: 1.01

AGAATTAGTA
switch fluorescence ratio: 1.01

ACCGAGGGGA
switch fluorescence ratio: 1.03

CAACGACACA
switch fluorescence ratio: 1.41

TAGGTCTTAC
switch fluorescence ratio: 1.04

GAGCGATGGG
switch fluorescence ratio: 0.973

GAACGTAAAA
switch fluorescence ratio: 1.07

AGGTCATGCT
switch fluorescence ratio: 1.01

CGTTTAAATT
switch fluorescence ratio: 0.931

CCAGCGGTCA
switch fluorescence ratio: 1.04

AGTAGAGGAA
switch fluorescence ratio: 0.96

TGGTACTCGG
switch fluorescence ratio: 0.973

TAGAGGTGAA
switch fluorescence ratio: 1.01

AGTCGGTCAC
switch fluorescence ratio: 1.01

AGTTTCGAGG
switch fluorescence ratio: 0.998

GGCTCATGGA
switch fluorescence ratio: 0.962

AGTCTTGGCG
switch fluorescence ratio: 1.02

TAGTTTAGAG
switch fluorescence ratio: 0.946

CAAATAGTAA
switch fluorescence ratio: 0.998

TGCGGCATGC
switch fluorescence ratio: 1.11

ATGGGTCATT
switch fluorescence ratio: 1.01
